Laboratory results as given in paper PMC5476798.
Results are given in words; binding and its absence hold for the method and conditions named. In cells and extracts the contact can be indirect. Some results given as binding are weak or reduced against the parent protein; the word gives no strength. For part of these data: Sequences can lack the tags named with a protein.

How the values were obtained:
[1] = molecular target: T1, _(ProtA)Sam50 (S. cerevisiae) (UniProt P53969); test: pull-down; whole-cell extracts of ProtA-Sam50 cells expressing wild-type or mutant mdm10 forms, 1% digitonin; IgG-Sepharose, elution with TEV protease; SDS-PAGE and immunodetection (Fig. 2a)
T1 sequence: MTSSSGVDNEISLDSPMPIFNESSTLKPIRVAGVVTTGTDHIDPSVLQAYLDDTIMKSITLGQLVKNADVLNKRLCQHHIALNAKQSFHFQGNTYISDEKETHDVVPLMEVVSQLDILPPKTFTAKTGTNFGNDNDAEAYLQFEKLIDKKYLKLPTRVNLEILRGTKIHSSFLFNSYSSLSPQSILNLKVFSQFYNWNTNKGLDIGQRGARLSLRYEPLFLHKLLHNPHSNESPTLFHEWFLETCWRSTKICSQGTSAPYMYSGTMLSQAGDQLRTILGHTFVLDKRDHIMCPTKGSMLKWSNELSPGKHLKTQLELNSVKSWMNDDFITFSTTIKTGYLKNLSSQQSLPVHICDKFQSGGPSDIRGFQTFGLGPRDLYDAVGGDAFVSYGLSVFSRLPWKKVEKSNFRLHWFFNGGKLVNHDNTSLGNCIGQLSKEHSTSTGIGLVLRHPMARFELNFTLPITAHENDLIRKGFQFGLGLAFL

[2] = molecular target: T2, Mdm10^G144L (S. cerevisiae) (UniProt P18409); test: co-IP; mitochondria lysed with 1% digitonin; antibodies against Mdm10 coupled to protein A-Sepharose, 1 h at 4 °C; SDS-PAGE and immunodetection (Fig. 1c)
T2 sequence: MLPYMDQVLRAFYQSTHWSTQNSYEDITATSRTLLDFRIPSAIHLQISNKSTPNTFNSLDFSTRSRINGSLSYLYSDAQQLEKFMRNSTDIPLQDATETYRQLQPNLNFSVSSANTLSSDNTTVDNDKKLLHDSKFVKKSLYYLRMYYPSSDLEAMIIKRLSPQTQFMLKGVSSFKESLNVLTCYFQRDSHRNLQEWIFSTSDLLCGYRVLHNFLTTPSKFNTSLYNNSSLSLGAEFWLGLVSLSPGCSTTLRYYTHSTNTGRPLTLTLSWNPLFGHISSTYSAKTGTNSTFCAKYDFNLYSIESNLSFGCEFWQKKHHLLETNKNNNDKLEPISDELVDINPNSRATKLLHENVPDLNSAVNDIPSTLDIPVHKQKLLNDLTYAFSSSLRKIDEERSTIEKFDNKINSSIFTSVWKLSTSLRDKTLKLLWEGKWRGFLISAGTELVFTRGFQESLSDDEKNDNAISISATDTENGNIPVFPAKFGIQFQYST

[3] = molecular target: T3, Mdm10 (mitochondrial distribution and morphology protein Mdm10), wild type (S. cerevisiae) (UniProt P18409); test: as above
T3 sequence: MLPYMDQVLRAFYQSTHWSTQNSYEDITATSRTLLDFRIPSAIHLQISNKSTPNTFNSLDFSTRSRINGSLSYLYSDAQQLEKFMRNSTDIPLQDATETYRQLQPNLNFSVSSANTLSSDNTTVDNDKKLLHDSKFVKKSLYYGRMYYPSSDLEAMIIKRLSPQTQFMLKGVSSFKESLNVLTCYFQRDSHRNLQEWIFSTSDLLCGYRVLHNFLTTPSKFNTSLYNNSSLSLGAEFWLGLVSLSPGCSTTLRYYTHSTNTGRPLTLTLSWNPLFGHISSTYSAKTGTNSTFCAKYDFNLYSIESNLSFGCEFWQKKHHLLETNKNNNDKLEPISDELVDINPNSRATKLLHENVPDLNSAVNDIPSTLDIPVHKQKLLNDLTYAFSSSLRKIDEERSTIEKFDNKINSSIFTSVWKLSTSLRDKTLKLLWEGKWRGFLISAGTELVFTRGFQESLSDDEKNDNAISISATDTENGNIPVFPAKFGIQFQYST

[4] = molecular target: T4, Mdm10^Y296A,F298A (S. cerevisiae) (UniProt P18409); test: as above
T4 sequence: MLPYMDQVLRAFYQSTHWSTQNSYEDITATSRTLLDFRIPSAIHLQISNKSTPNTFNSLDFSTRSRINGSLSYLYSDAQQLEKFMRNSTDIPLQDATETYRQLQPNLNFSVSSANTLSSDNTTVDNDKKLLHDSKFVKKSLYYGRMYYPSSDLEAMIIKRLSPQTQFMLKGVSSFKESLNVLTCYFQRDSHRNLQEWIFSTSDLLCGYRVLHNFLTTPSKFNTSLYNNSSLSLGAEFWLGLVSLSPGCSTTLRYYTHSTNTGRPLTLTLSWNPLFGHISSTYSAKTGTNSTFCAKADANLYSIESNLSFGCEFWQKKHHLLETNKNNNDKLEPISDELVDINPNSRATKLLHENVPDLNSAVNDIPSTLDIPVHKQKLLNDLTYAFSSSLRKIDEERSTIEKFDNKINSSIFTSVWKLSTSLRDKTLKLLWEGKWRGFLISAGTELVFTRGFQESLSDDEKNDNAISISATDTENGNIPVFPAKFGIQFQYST

[5] = molecular target: T1, _(ProtA)Sam50 (S. cerevisiae); test: pull-down; whole-cell extracts of ProtA-Sam50 cells expressing wild-type or mutant mdm10 forms, 1% digitonin; IgG-Sepharose, elution with TEV protease; eluate on blue native electrophoresis, immunodetection with anti-Mdm10 (Fig. 2b, upper panel)
Tom7HA (S. cerevisiae) = molecular target: T5, Tom7HA (S. cerevisiae) (UniProt P53507); test: co-IP; mitochondria with HA-tagged small Tom proteins lysed with 1% digitonin; anti-HA affinity matrix, 1 h at 4 °C; elution with SDS sample buffer, immunodetection (Fig. 4d)
T5 sequence: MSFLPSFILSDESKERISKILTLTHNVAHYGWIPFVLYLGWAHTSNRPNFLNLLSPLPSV

[6] = molecular target: T6, _(ProtA)Mmm1 (S. cerevisiae) (UniProt P41800); test: pull-down; whole-cell extracts (cryo-grinding) of ProtA-Mmm1 cells, 1% digitonin; IgG-Sepharose, elution with TEV protease; SDS-PAGE and immunodetection; cells with wild-type or mutant mdm10 forms, and mdm10Δ cells (Fig. 2c, Supplementary Fig. 2c, Fig. 4c)
T6 sequence: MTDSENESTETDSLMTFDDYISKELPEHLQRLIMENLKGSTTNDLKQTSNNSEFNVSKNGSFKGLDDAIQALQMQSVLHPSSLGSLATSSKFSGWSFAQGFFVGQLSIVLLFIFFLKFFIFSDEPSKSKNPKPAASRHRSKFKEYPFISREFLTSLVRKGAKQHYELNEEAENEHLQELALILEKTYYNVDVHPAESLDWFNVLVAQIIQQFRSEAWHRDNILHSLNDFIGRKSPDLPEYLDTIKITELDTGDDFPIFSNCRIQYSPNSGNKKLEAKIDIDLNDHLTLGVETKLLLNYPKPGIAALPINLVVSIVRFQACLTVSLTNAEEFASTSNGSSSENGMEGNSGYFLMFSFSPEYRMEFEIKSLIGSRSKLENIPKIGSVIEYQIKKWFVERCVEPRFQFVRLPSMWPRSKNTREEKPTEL

Mdm10His (S. cerevisiae) = molecular target: T7, Mdm10His (S. cerevisiae) (UniProt P18409); test: pull-down; whole-cell extracts of Mdm10His cells, 1% digitonin, 10 mM imidazole; Ni-NTA; SDS-PAGE and immunodetection; also Mdm10His mdm12Δ and Mdm10His mmm1Δ cells (Fig. 4b)
T7 sequence: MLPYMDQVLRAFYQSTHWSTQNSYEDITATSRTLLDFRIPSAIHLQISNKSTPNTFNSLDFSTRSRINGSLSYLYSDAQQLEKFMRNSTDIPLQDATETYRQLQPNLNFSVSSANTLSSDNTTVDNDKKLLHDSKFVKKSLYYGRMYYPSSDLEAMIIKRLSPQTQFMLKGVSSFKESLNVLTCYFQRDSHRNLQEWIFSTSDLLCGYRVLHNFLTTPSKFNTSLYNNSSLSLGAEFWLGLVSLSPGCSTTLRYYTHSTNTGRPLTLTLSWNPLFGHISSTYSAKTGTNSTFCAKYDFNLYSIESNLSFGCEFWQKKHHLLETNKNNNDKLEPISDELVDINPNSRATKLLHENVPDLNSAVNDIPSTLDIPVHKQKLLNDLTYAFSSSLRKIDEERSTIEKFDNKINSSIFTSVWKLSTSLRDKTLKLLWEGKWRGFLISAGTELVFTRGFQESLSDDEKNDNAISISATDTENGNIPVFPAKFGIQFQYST

B1: Sam35 (protein, UniProt P14693 1-329)
chain: MVSSFSVPMPVKRIFDTFPLQTYAAQTDKDEAVALEIQRRSYTFTERGGGSSELTVEGTYKLGVYNVFLEANTGAALATDPWCLFVQLALCQKNGLVLPTHSQEQTPSHTCNHEMLVLSRLSNPDEALPILVEGYKKRIIRSTVAISEIMRSRILDDAEQLMYYTLLDTVLYDCWITQIIFCASDAQFMELYSCQKLSGSIVTPLDVENSLLQKLSAKSLKISLTKRNKFQFRHREIVKSMQGVYHNHHNSVNQEQVLNVLFENSKQVLLGLKDMLKSDGQPTYLHLKIASYILCITNVKEPIKLKTFVENECKELVQFAQDTLKNFVQ
- binding [1]: binds
- binding [2]: binds
- binding [3]: binds
- binding [4]: binds

B2: Sam37 (protein, UniProt P50110 1-327)
chain: MVKGSVHLWGKDGKASLISVDSIALVWFIKLCTSEEAKSMVAGLQIVFSNNTDLSSDGKLPVLILDNGTKVSGYVNIVQFLHKNICTSKYEKGTDYEEDLAIVRKKDRLLEYSLLNYVDVEISRLTDYQLFLNTKNYNEYTKKLFSKLLYFPMWYNTPLQLRSQARENCEEIIGSLTLEDDEEFVESKAMESASQLAQSKTFKIAHKNKIKGKQELQQVKYNLQFDNRLQSCVSNWLAARKKLDDSVILSSDLLFLANLYVQLGLPDGNRIRSKLEQTFGSELLNSMSNKIDDFVHRPSNNLEQRDPQFREQGNVVMSLYNLACKYI
- binding [1]: binds

B3: Mdm10^Y296A,F298A (protein, UniProt P18409 1-493)
chain: MLPYMDQVLRAFYQSTHWSTQNSYEDITATSRTLLDFRIPSAIHLQISNKSTPNTFNSLDFSTRSRINGSLSYLYSDAQQLEKFMRNSTDIPLQDATETYRQLQPNLNFSVSSANTLSSDNTTVDNDKKLLHDSKFVKKSLYYGRMYYPSSDLEAMIIKRLSPQTQFMLKGVSSFKESLNVLTCYFQRDSHRNLQEWIFSTSDLLCGYRVLHNFLTTPSKFNTSLYNNSSLSLGAEFWLGLVSLSPGCSTTLRYYTHSTNTGRPLTLTLSWNPLFGHISSTYSAKTGTNSTFCAKADANLYSIESNLSFGCEFWQKKHHLLETNKNNNDKLEPISDELVDINPNSRATKLLHENVPDLNSAVNDIPSTLDIPVHKQKLLNDLTYAFSSSLRKIDEERSTIEKFDNKINSSIFTSVWKLSTSLRDKTLKLLWEGKWRGFLISAGTELVFTRGFQESLSDDEKNDNAISISATDTENGNIPVFPAKFGIQFQYST
- binding [5]: binds
- binding (Tom7HA (S. cerevisiae)): binds

B4: Mdm10^G144L (protein, UniProt P18409 1-493)
chain: MLPYMDQVLRAFYQSTHWSTQNSYEDITATSRTLLDFRIPSAIHLQISNKSTPNTFNSLDFSTRSRINGSLSYLYSDAQQLEKFMRNSTDIPLQDATETYRQLQPNLNFSVSSANTLSSDNTTVDNDKKLLHDSKFVKKSLYYLRMYYPSSDLEAMIIKRLSPQTQFMLKGVSSFKESLNVLTCYFQRDSHRNLQEWIFSTSDLLCGYRVLHNFLTTPSKFNTSLYNNSSLSLGAEFWLGLVSLSPGCSTTLRYYTHSTNTGRPLTLTLSWNPLFGHISSTYSAKTGTNSTFCAKYDFNLYSIESNLSFGCEFWQKKHHLLETNKNNNDKLEPISDELVDINPNSRATKLLHENVPDLNSAVNDIPSTLDIPVHKQKLLNDLTYAFSSSLRKIDEERSTIEKFDNKINSSIFTSVWKLSTSLRDKTLKLLWEGKWRGFLISAGTELVFTRGFQESLSDDEKNDNAISISATDTENGNIPVFPAKFGIQFQYST
- binding [5]: binds
- binding (Tom7HA (S. cerevisiae)): no binding

B5: Mdm12 (protein, UniProt Q92328 1-271)
chain: MSFDINWSTLESDNRLNDLIRKHLNSYLQNTQLPSYVSNLRVLDFDLGKVGPAITLKEITDPLDEFYDSIREEADQETEENNDNKEDSEHICPDRTIANHEGPKDDFEAPVVMPSPNDIQFLLEVEYKGDLLVTIGADLVLNYPVEKFMTLPVKLSISDIGLHSLCIVACLSKQLFLSFLCDVSDPALDDNQTVLDPKGPILAATKPLERISIVRSMKIETEIGEQYQGQGSVLRSVGELEQFLFTIFKDFLRKELAWPSWINLDFNDGDE
- binding [6]: binds

B6: Mdm34 (Mmm2) (protein, UniProt P53083 1-459)
chain: MSFRFNEAVFGDNSFNERIREKLSTALNSPSKKKLDILKSGIKVQKVDFPTIPQLEILDLDIITQPKSLAKGICKISCKDAMLRIQTVIESNLLLINEQDTPSFTMPQLINNGSFTIPITMTFSSIELEAITNIFVKNPGIGISFNDVDLDFKFDCSVKILQSTIERRLKESMHVVFKDVLPSLIFNTSQNWFTNRGESTSTIPGKREHHHQQTTMSRNVILDGSDFQELSPINMLRLSSIVSSRSTLSLHSTVMNSLSAIPGCLERQNLYRFISRMPSLNNYYSSQSFPQPKSSTVSSKQLVKPFYCSHNLLPKTVLDSSQYDLATITKIQSRLFDRSNSNDDNAKPRRRKIKCKKTRTPSNLQSQGEQAVDDSTAIETVTSTPVQTPIPELEEQSPPYLKTTVSIRDKYVIPEKISLNLDSKKDTSKKKPFYFIGLNSQEPSNNWKWGMEDSPPPYH
- binding (Mdm10His (S. cerevisiae)): binds

B7: Tom7 (protein, UniProt P53507 1-60)
chain: MSFLPSFILSDESKERISKILTLTHNVAHYGWIPFVLYLGWAHTSNRPNFLNLLSPLPSV
- binding [3]: binds
